Reference: PubChem BioAssay AID624170 (National Center for Advancing Translational Sciences (NCATS), 2012)
The campaign covered roughly 410,000 compounds. About 850 (0.21%) were called active. Inconclusive means that the source gave no clear call. Such entries were picked first, then a sample of the others. The call rests on the fitted dose curve; in most records, active means well fitted inhibition curve with a large enough effect; inconclusive means small, poorly fitted or top-dose-only effect, or another doubt; inactive means no such curve, though single readings can be large or run the other way. Potencies of inconclusive entries are left out as doubtful fits.

Target: Glutaminase kidney isoform, mitochondrial (Homo sapiens) (UniProt O94925)
Assay: qHTS for Inhibitors of Glutaminase (GLS)
Details: GLS enzymatic activity, qHTS titration; series mostly up to 45.5 µM
In short: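 Read-out is an Amplex red fluorescence increase coupled through glutamate oxidase and HRP, measured before and after 30 min room-temperature incubation. hKGA is in 45 mM KH2PO4 (pH 8.2) with 0.02% Tween-20; glutamine added as 1mM solution.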
Potency means the concentration at half of the fitted maximal effect; tags describe the fitted curve by direction and shape.

UniProt O94925, sequence (O94925 whole entry, looked up, canonical isoform): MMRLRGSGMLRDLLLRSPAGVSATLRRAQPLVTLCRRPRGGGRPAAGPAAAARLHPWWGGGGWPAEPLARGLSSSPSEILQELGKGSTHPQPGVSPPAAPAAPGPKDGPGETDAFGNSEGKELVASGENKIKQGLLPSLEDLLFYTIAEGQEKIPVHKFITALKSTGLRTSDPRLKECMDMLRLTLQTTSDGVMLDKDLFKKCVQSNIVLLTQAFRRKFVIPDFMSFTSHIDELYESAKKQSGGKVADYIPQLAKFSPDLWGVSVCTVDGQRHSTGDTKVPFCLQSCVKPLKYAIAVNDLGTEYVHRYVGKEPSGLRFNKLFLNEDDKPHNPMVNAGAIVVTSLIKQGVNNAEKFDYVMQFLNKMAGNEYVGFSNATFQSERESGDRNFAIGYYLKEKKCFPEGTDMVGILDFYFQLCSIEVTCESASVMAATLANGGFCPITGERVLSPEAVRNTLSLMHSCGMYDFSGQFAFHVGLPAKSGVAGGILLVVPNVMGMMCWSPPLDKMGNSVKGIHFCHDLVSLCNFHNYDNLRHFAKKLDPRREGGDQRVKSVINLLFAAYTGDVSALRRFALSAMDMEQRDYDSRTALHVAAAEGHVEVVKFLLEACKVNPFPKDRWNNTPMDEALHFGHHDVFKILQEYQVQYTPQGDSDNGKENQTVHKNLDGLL

| Compound | Potency |
| --- | --- |
| CCc1nn(CC(=O)NCCN2CCOCC2)c(=O)c2cc3c(OC)cccc3n12 | inactive |
| CCOC(=O)/C=C1\CC(C(=O)OCC)Oc2c(OC)cccc21 (stereo not given) | inactive |
| O=C(NCCN1CCOCC1)c1ccc2c(c1)N(Cc1ccccc1F)C(=O)c1ccccc1S2 | inconclusive [inhibitor, partial curve, poor fit] |
| COc1ccc(Cc2nc3ccccc3n2C)cc1 | inconclusive [inhibitor, partial curve, poor fit] |
| Oc1ccc(/C=N/Nc2ccc(Cl)nn2)c(O)c1O | inconclusive [inhibitor, partial curve] |
| CN(C)c1ccc(/C=N/N=C(N)N)cc1[N+](=O)[O-] | inconclusive [inhibitor, partial curve] |
| O=C1OC(Nc2ccc3c(c2)OCO3)c2ccccc21 (stereo not given) | inconclusive [inhibitor, partial curve] |
| Clc1ccc2nc(-c3ccccn3)c(Nc3ccc4c(c3)OCO4)n2c1 | inconclusive [inhibitor, partial curve] |
| COc1ccc(-c2cnc(C)o2)cc1S(=O)(=O)Nc1ccc(C)c(F)c1 | inconclusive [inhibitor, single point] |
| O=C(Cc1ccccc1[N+](=O)[O-])NCc1ccco1 | inactive |
| CC1Cc2ccccc2N1C(=O)CNc1cccc(S(=O)(=O)N2CCCC2)c1 (stereo not given) | inconclusive [inhibitor, single point] |
| CC(C)(C)NC(=O)c1ccc(Cn2cc(C(F)(F)F)ccc2=O)cc1 | inconclusive [inhibitor, single point] |
| CC1CN(C(C)C)C(=S)N(c2ccccc2)C1=O (stereo not given) | inconclusive [inhibitor, single point] |
| Cc1ccccc1NC(=O)Cn1c(CCC(=O)O)ccc1-c1cccs1 | inconclusive [inhibitor, partial curve, poor fit] |
| O=[N+]([O-])c1ccccc1S(=O)(=O)Nc1cccc(-c2ccc(N3CCCC3)nn2)c1 | inconclusive [inhibitor, partial curve, poor fit] |
| Cc1ccc(NNC(=S)Nc2ccc(C(C)C)cc2)c(C)c1 | inconclusive [inhibitor, single point] |
| Cc1cccc(C(=O)NNS(=O)(=O)c2ccc(F)cc2)c1O | inconclusive [inhibitor, partial curve] |
| COc1ccc(NC(=O)C(C/C=C(/C)Cl)C(C)=O)cc1 (stereo not given) | inconclusive [inhibitor, single point] |
| CCc1ccccc1NNC(=O)CCc1ccccc1 | inconclusive [inhibitor, partial curve] |
| O=C(O)c1ccc2c(c1)C(=O)/C(=C/c1ccccc1)C2=O | active: 7.08 µM |
| CCC(Oc1ccccc1)C(=O)Nc1ccccc1OCc1cc(=O)n2ccccc2n1 (stereo not given) | inactive |
| FC(F)(F)c1ccccc1Cc1c(-c2ccc(Cl)cc2)nc2ccc(Br)cn12 | inactive |
| COc1ccccc1/C=C/C=N/n1c(-c2ccncc2)n[nH]c1=S | inconclusive [inhibitor, partial curve] |
| O=C(COc1ccc(Cl)cc1Cl)NCCN1CCCCC1 | inactive |

| Compound | Potency |
| --- | --- |
| O=C(NCC1CCCO1)c1ccc2c(c1)ncn2-c1cccc(F)c1 (stereo not given) | inactive |
| Cc1ccc(Nc2c(-c3ccc(C)cc3)nc3cnccn23)cc1 | inconclusive [inhibitor, partial curve, poor fit] |
| Oc1cc(-n2cccn2)c(O)cc1-n1cccn1 | inconclusive [inhibitor, single point] |
| Cc1cc(=O)n(Nc2ccccc2)c(O)c1C#N | inconclusive [inhibitor, single point] |
| O=C(CCNC(=O)C1CCN(S(=O)(=O)c2ccccc2)CC1)Nc1ccccc1 | inactive |
| Cc1cc(Nc2nc3ccccc3nc2Cl)n(-c2ccccc2C)n1 | inconclusive [inhibitor, single point] |
| Cc1ccc(NC(=S)Nc2cccc3ccccc23)cc1F | inconclusive [inhibitor, single point] |
| COc1cccc(/C=N/Nc2c(Cl)cncc2Cl)c1O | inconclusive [inhibitor, single point] |
| CCC(=O)Nc1ccc2oc(-c3cccc(C)c3)nc2c1 | inconclusive [inhibitor, single point] |
| CCCCCc1cc(=O)oc2c(C(CCN3CCCCC3)c3cc(OC)c(OC)c(OC)c3)c(OC)cc(OC)c12 (stereo not given) | inconclusive [inhibitor, single point] |
| COc1ccc(NCc2cc3cc4c(cc3n(CC(=O)Nc3ccc(F)cc3F)c2=O)OCO4)cc1 | inconclusive [inhibitor, partial curve, poor fit] |
| Cc1ccc(N/C=C(\C#N)c2ccc(OCCCF)cc2)cc1 | inconclusive [inhibitor, partial curve, poor fit] |
| O=c1cc(Nc2ccc3c(c2)OCCO3)[nH]c(=O)n1Cc1ccc(F)cc1 | inconclusive [inhibitor, single point] |
| O=c1[nH]cc(N(CCO)CCO)c(=O)[nH]1 | inconclusive [inhibitor, single point] |
| N#C/C(=C\c1c(N(Cc2ccccc2)Cc2ccccc2)nc2ccccn2c1=O)C(N)=O | inconclusive [inhibitor, single point] |
| CCOCCCNC(=O)NC(C)c1c(-n2cccc2)sc2c1CCN(CC)C2 (stereo not given) | inconclusive [inhibitor, partial curve, poor fit] |
| COc1ccc2c(c1)C(=O)Nc1cc(Cl)ccc1N2 | active: 12.6 µM |
| Cc1cc(C)nc(NC(=O)c2ccc(COc3ccccc3Cl)cc2)c1 | inactive |
| Cc1cccc(-c2noc(CN(C(=O)COc3ccc(Br)cc3C)C(C)C)n2)c1 | inactive |
| C/C(=N\Nc1ccccc1Cl)c1ccc(-n2ccnc2)cc1 | inconclusive [inhibitor, partial curve, poor fit] |
| O=C(CN(C(=O)CCC(=O)Nc1ccccn1)c1cccc(F)c1)NCc1ccco1 | inconclusive [inhibitor, single point] |
| CCn1nnc(NC(=O)CSc2ccc(Cl)cc2)n1 | inconclusive [inhibitor, partial curve, poor fit] |
| Cc1ccc(-c2c[nH]c(=S)n2-c2ccccc2)cc1 | inconclusive [inhibitor, partial curve] |
| COc1cc(-c2nc3nc[nH]n3c2Nc2ccc(C(C)C)cc2)ccc1O | inconclusive [inhibitor, single point] |

| Compound | Potency |
| --- | --- |
| Cc1ccc(O)c(C(=O)c2cnn(-c3ccccc3)c2)c1 | inconclusive [inhibitor, single point] |
| CC(C)C(=O)N(c1ccc2oc(=O)sc2c1)S(=O)(=O)c1cccs1 | inconclusive [inhibitor, single point] |
| CCn1c2ccc(C)cc2c2nnc(NN)nc21 | inconclusive [inhibitor, single point] |
| O=C(Nc1ccc(Cl)cc1)c1cccc(N2C(=O)C3C4CCC(C4)C3C2=O)c1 (stereo not given) | inactive |
| C=C(C)C(=O)Nc1cccc(C2=NOC3(C2)C[C@@H](C(N)=O)N(C(=O)c2ccc(OC)cc2)C3)c1 (stereo not given in full) | inconclusive [inhibitor, single point] |
| Cc1ccsc1C(=O)OCC(=O)c1ccc(OC(F)F)cc1 | inconclusive [inhibitor, full curve, poor fit] |
| CCCCC(=O)Nc1ccc(NCc2ccc(C)s2)cc1 | inconclusive [inhibitor, single point] |
| CC(=O)c1c(C(C)=O)c(C)n(-c2nc(-c3ccc(C)c(C)c3)c(C)s2)c1C | inconclusive [inhibitor, single point] |
| COc1cc2cc(CN(Cc3nnnn3Cc3ccco3)C3CCCCC3)c(=O)[nH]c2cc1OC | inconclusive [inhibitor, single point] |
| CC(=O)N(C(C)=O)N1C(=O)/C(=C/c2ccc(Cl)cc2)SC1=S | inconclusive [inhibitor, single point] |
| O=C(O)c1cc2cc(Cl)cc(Cl)c2oc1=O | inactive |
| COc1ccc(-n2c(C)n[nH]c2=O)cc1 | inactive |
| O=S1(=O)N=C(N(CCO)/N=C/c2ccncc2)c2ccccc21 | inactive |
| NC(=O)c1cccnc1Nc1cccc([N+](=O)[O-])c1 | inactive |
| Cc1cc(S(=O)(=O)N2CCCC2)ccc1OCC(=O)N1CCC(C(N)=O)CC1 | inconclusive [inhibitor, single point] |
| Oc1ccc(COCc2ccccc2)c2cccnc12 | inactive |
| CCS(=O)(=O)Nc1ccc(C2=NN(C(=O)c3ccco3)C(c3ccco3)C2)cc1 (stereo not given) | inactive |
| COc1ccccc1NNC(=O)C(O)(c1ccccc1)c1ccccc1 | inconclusive [inhibitor, partial curve] |
| COc1ccc(OC2CCN(S(=O)(=O)c3ccc(C(C)=O)cc3)CC2)cc1 | inactive |
| COc1cc(CNc2ccc3[nH]c(=O)[nH]c3c2)ccc1OCc1ccc(F)cc1Cl | inconclusive [inhibitor, single point] |
| c1coc(-c2nc(-c3ccco3)c(-c3ccco3)nc2-c2ccco2)c1 | active: 12.6 µM |
| COc1ccc(OC)c(S(=O)(=O)n2cnc3ccccc32)c1 | inactive |
